Assay results as given in the supplement of paper PMC10126150.
Values marked as one replicate rest on one cluster of the flow cell; about a third of the high ones do not repeat.

Test system: ATP
Test: switch fluorescence ratio, 500 uM ATP over buffer (Cy3 cluster intensity, sum of 5 cycles each) (fold (ratio)); higher = stronger signal-on switching upon ATP binding; sequences stand for … in TCGTCGGCAGCGTCAGATGTGTATAAGAGACAGTTTTTTTTTTTTTTTTTTTTTTTTT…TC
Settings: aptamer strand: ATP DNA aptamer (quencher-CACCTGGGGGAGTATTGCGGAGGAAGG + anchor), 100 nM annealed; ATP concentration: 500 uM; one replicate
Outline: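 Cy3-labelled switching-strand clusters on a modified Illumina MiSeq flow-cell were annealed to 100 nM quencher-labelled ATP aptamer and imaged first in selection buffer, then after 15 min with 500 uM ATP at 22 °C. NaOH stripping and re-annealing separated each of five buffer/ATP cycles, and clusters outside 100-1000 RFU were excluded. The fluorescence ratio sums target-cycle Cy3 intensity over buffer-cycle Cy3 intensity per cluster and averages it per switch-domain sequence.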
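Note: ATP exposure 15 min at 22 °C before imaging.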

| Sequence | switch fluorescence ratio |
| --- | --- |
| GGTGGCTCTT | 0.986 |
| GGTGGGCGTC | 0.993 |
| GGTGGGCTAG | 0.991 |
| GGTGGGGG | 1.03 |
| GGTGGTATCT | 0.988 |
| GGTGGTCCAC | 0.974 |
| GGTGGTGCAT | 0.998 |
| GGTGGTGGTC | 1.03 |
| GGTGGTGTAA | 1.01 |
| GGTGGTTCAT | 1.02 |
| GGTGGTTGCT | 0.98 |
| GGTGGTTTGT | 1 |
| GGTGTACTGC | 0.962 |
| GGTGTACTTG | 1.01 |
| GGTGTTC | 0.98 |
| GGTGTTCCGA | 0.963 |
| GGTGTTCGCG | 1.03 |
| GGTGTTGGGA | 0.965 |
| GGTGTTTGAA | 0.972 |
| GGTTAACATG | 1.01 |
| GGTTAATAAA | 1.01 |
| GGTTACTCGG | 1.03 |
| GGTTACTTTG | 1.02 |
| GGTTATTAGT | 1.01 |
| GGTTATTC | 0.985 |

| Sequence | switch fluorescence ratio |
| --- | --- |
| GGTTCCATGT | 0.989 |
| GGTTCGGACG | 1.04 |
| GGTTCGTGCT | 0.987 |
| GGTTCTACT | 0.994 |
| GGTTCTGTAA | 1.02 |
| GGTTCTTAAT | 1.03 |
| GGTTGAAATA | 0.977 |
| GGTTGAAGGA | 0.979 |
| GGTTGAATCT | 0.981 |
| GGTTGATGGT | 1 |
| GGTTGCTACA | 0.979 |
| GGTTGCTTTG | 0.994 |
| GGTTGGAGCG | 1.01 |
| GGTTGGCACG | 1.03 |
| GGTTGGGAGT | 1.01 |
| GGTTGGGTAC | 1.05 |
| GGTTGTACTA | 1.01 |
| GGTTGTGCAG | 0.973 |
| GGTTTATCG | 0.961 |
| GGTTTCCCGG | 0.972 |
| GGTTTCCGCG | 1.15 |
| GGTTTCCTCT | 1.04 |
| GGTTTCTGAG | 0.997 |
| GGTTTGAAG | 0.981 |
| GGTTTGTCCC | 1.04 |

| Sequence | switch fluorescence ratio |
| --- | --- |
| GGTTTTAGCG | 0.943 |
| GGTTTTCGTC | 1 |
| GGTTTTGCGC | 0.99 |
| GTAAAACGAT | 0.986 |
| GTAAACCCGG | 1.51 |
| GTAAAGAGTA | 1.01 |
| GTAAAGATCT | 0.991 |
| GTAAAGGTCA | 0.97 |
| GTAAAGTT | 0.97 |
| GTAAATACGT | 1.03 |
| GTAAATATTG | 1.07 |
| GTAAATTCAA | 1.03 |
| GTAACAAGGC | 1.27 |
| GTAACAAGTC | 1.02 |
| GTAACAGGGC | 1.04 |
| GTAACGGTTG | 0.98 |
| GTAAGAATAT | 1.01 |
| GTAAGAGAGC | 1.07 |
| GTAAGCCTGA | 0.998 |
| GTAAGGATTG | 1.02 |
| GTAAGGGTCA | 1.01 |
| GTAAGGTAAT | 0.996 |
| GTAATAAAGT | 1 |
| GTAATAGCTA | 0.956 |
| GTAATCAGG | 1.02 |

| Sequence | switch fluorescence ratio |
| --- | --- |
| GTAATCGGCC | 1.07 |
| GTAATGCTGG | 1.02 |
| GTAATTCCTA | 1.04 |
| GTAATTCGTA | 0.981 |
| GTAATTCTCG | 1.07 |
| GTAATTGGT | 0.976 |
| GTAATTTGTC | 1.01 |
| GTACAAATGG | 0.995 |
| GTACATGCTG | 0.954 |
| GTACATGGGT | 1 |
| GTACCCACGC | 1.38 |
| GTACCCCCGG | 1.09 |
| GTACCCGCTG | 1.08 |
| GTACCCTGTG | 1.04 |
| GTACCTGGGG | 0.986 |
| GTACCTTTTC | 1.18 |
| GTACGGACTA | 1.3 |
| GTACGTTTTT | 0.958 |
| GTACTAGGTC | 1.02 |
| GTACTATTTC | 1 |
| GTACTGCGAG | 0.984 |
| GTAGACGATA | 1.01 |
| GTAGAGATTA | 0.997 |
| GTAGAGGTTG | 0.948 |
| GTAGAGTTGA | 0.979 |

| Sequence | switch fluorescence ratio |
| --- | --- |
| GTAGCAAATG | 1.64 |
| GTAGCCCGTT | 1.03 |
| GTAGCGCAGA | 0.967 |
| GTAGCTAAGG | 1.01 |
| GTAGCTCAGG | 1.1 |
| GTAGGAATGC | 1.15 |
| GTAGGATAGC | 1.04 |
| GTAGGCGCGC | 1.02 |
| GTAGGCGGGT | 1.04 |
| GTAGGGACTG | 0.976 |
| GTAGGGTATT | 1.03 |
| GTAGGTGCCG | 0.991 |
| GTAGGTGTTC | 0.993 |
| GTAGTACCCG | 0.937 |
| GTAGTAGCGA | 1.06 |
| GTAGTAGGCG | 0.97 |
| GTAGTATGGA | 0.958 |
| GTAGTCCATG | 0.987 |
| GTAGTGAATA | 1.1 |
| GTAGTGGTGG | 0.992 |
| GTAGTTCGGT | 0.943 |
| GTAGTTTAAG | 1.02 |
| GTAGTTTATC | 0.991 |
| GTATAAGTTA | 0.973 |
| GTATAATACG | 1.01 |

| Sequence | switch fluorescence ratio |
| --- | --- |
| GTATACATAC | 1.12 |
| GTATAGTGTT | 0.989 |
| GTATATAGAG | 1.01 |
| GTATATCAAG | 1 |
| GTATATTAGT | 0.989 |
| GTATATTTGC | 0.984 |
| GTATCTGGCT | 1.02 |
| GTATCTTCCT | 1.58 |
| GTATGACCTC | 1 |
| GTATGAGGCA | 0.98 |
| GTATGCCCTA | 0.986 |
| GTATGGATAG | 0.994 |
| GTATGGCTGA | 0.959 |
| GTATGGGAAC | 1 |
| GTATGTCAGT | 1.02 |
| GTATGTCGGG | 0.986 |
| GTATGTTAAT | 0.955 |
| GTATGTTTAT | 0.997 |
| GTATTGCGTA | 1.03 |
| GTATTGCGTG | 0.957 |
| GTATTTAGGC | 1.01 |
| GTATTTCGG | 1.02 |
| GTATTTTGTG | 0.985 |
| GTCAACGCTG | 1 |
| GTCAAGATAA | 0.979 |

| Sequence | switch fluorescence ratio |
| --- | --- |
| GTCAAGGGAT | 1.01 |
| GTCAATTCGG | 0.978 |
| GTCACTAAT | 1.07 |
| GTCAGAAAGT | 0.996 |
| GTCAGACAGG | 1.02 |
| GTCAGACGGC | 0.978 |
| GTCAGCTTAG | 0.998 |
| GTCAGGAACG | 0.933 |
| GTCAGGAGCC | 1.02 |
| GTCAGGATAC | 1.22 |
| GTCAGGTGGG | 1.12 |
| GTCAGTTGGT | 0.954 |
| GTCATAGTAC | 1.06 |
| GTCATCGGGA | 0.995 |
| GTCATGCTAT | 0.992 |
| GTCATGGGGA | 1.02 |
| GTCATTAAGG | 1.01 |
| GTCATTCTTG | 0.98 |
| GTCCACGGGG | 1.05 |
| GTCCCAGCAG | 1.08 |
| GTCCCCTATT | 1.02 |
| GTCCCTATTG | 0.981 |
| GTCCGAACAG | 1.11 |
| GTCCGGAGCT | 3.5 |
| GTCCGTAGGT | 1.01 |

| Sequence | switch fluorescence ratio |
| --- | --- |
| GTCCTCCAGC | 3.63 |
| GTCCTGGCTT | 0.994 |
| GTCCTGTGGC | 0.972 |
| GTCGAATAGT | 1 |
| GTCGACTCGC | 0.995 |
| GTCGCATTAT | 1.23 |
| GTCGCGGGTC | 1.03 |
| GTCGCGTCAG | 0.97 |
| GTCGGCACCC | 1.02 |
| GTCGGCCTGA | 1 |
| GTCGGCGGAG | 1.02 |
| GTCGGGGAAA | 0.996 |
| GTCGGGTACG | 1 |
| GTCGGTCAGG | 0.998 |
| GTCGTAATCA | 0.971 |
| GTCGTACTAA | 1.03 |
| GTCGTACTGG | 0.967 |
| GTCGTAGAGA | 1.02 |
| GTCGTCCAGG | 1.24 |
| GTCGTGGGA | 1.04 |
| GTCGTTCAAT | 0.968 |
| GTCTAAACTC | 1.02 |
| GTCTAAGCTG | 0.979 |
| GTCTATGTTT | 1.01 |
| GTCTCAGGCC | 0.962 |
